{"source": "the supplement of paper PMC3334620", "note": "The full ranking holds about 33,000 sequences; the median of “E-score (-0.5 to 0.5)” is about -0.053, and the highest 2% start at about 0.37. The list shows a part of the results.", "data": [{"target": "Hap1 (UniProt P0CE41)", "sequence (P0CE41 whole entry, the tested form may be a part)": "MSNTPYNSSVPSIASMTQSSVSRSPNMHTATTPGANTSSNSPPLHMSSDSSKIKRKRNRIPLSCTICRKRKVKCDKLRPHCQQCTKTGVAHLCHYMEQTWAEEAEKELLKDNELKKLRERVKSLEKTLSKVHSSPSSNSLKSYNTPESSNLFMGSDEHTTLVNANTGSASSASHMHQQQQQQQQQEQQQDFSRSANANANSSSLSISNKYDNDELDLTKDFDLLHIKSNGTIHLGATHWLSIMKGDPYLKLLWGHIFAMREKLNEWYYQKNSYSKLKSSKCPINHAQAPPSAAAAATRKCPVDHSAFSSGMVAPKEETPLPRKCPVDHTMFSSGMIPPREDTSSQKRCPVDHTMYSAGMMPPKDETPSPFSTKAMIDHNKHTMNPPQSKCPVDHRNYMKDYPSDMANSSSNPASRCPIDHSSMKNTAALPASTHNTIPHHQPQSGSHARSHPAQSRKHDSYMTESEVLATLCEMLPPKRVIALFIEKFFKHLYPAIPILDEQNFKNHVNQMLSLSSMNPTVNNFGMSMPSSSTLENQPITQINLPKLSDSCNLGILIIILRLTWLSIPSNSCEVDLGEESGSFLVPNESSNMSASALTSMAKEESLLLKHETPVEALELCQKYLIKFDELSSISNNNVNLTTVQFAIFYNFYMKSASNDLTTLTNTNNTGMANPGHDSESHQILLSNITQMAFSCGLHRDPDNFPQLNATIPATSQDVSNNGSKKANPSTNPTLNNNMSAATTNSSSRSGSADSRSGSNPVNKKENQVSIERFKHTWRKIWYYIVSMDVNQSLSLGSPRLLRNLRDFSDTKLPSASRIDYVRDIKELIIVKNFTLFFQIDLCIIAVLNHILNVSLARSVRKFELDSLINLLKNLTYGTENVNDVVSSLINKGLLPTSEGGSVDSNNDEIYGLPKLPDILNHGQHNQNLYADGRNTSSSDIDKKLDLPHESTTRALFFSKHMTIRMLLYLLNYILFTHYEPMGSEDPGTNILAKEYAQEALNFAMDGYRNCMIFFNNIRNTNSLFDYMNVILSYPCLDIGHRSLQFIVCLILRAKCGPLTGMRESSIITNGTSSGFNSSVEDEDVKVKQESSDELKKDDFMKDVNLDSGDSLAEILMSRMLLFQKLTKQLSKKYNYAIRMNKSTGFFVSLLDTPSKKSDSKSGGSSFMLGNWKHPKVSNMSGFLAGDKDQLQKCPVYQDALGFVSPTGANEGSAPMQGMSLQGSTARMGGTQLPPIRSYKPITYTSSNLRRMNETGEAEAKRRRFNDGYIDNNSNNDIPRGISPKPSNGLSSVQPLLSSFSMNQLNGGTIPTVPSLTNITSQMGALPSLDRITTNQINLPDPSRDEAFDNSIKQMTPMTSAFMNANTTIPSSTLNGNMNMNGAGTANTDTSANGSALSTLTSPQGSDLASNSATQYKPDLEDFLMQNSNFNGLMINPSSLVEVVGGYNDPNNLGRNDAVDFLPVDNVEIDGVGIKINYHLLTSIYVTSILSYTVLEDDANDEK", "experiment": "PBM E-score (8-mer binding enrichment) (E-score (-0.5 to 0.5)); higher = stronger / more preferred TF binding; most listed sequences are background and not binding sites", "settings": "protein concentration: 200 nM; construct: GST-DNA-binding domain", "procedure,_shortened": "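E-scores (a modified Wilcoxon-Mann-Whitney statistic) were assigned by the Universal PBM Analysis Suite to every ungapped eight-base word pooled with its reverse complement. The input came from universal all-10-mer Agilent arrays made double-stranded by primer extension and probed with GST-tagged yeast transcription factors at about 100-200 nM. Fluorescent anti-GST detected bound protein, and masliner normalised the scans.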", "values": [{"sequence": "CACAGCCC", "PBM E-score": -0.159}, {"sequence": "CAAACCGA", "PBM E-score": 0.0483}, {"sequence": "GTGAAGGA", "PBM E-score": -0.189}, {"sequence": "ATGAACAC", "PBM E-score": -0.0814}, {"sequence": "AAAAATTT", "PBM E-score": 0.0632}, {"sequence": "GCAAAGAA", "PBM E-score": 0.0542}, {"sequence": "ACGAAAAT", "PBM E-score": -0.025}, {"sequence": "AGCGGTAA", "PBM E-score": 0.247}, {"sequence": "ATAGGCAC", "PBM E-score": -0.101}, {"sequence": "AGTTAGCA", "PBM E-score": -0.0943}, {"sequence": "ACTATACG", "PBM E-score": -0.00086}, {"sequence": "ACCAGAGG", "PBM E-score": -0.255}, {"sequence": "ACAATAGG", "PBM E-score": -0.0571}, {"sequence": "AATAAAGA", "PBM E-score": -0.039}, {"sequence": "AATGCATA", "PBM E-score": -0.123}, {"sequence": "GACTCCTC", "PBM E-score": -0.168}, {"sequence": "AGAGGCCA", "PBM E-score": -0.167}, {"sequence": "AGTGCGAG", "PBM E-score": -0.171}, {"sequence": "TCGTCTAA", "PBM E-score": -0.183}, {"sequence": "CCGGGATC", "PBM E-score": 0.365}, {"sequence": "TGTCCCAA", "PBM E-score": -0.233}, {"sequence": "AGCCCGAT", "PBM E-score": 0.287}, {"sequence": "ATCGTGGG", "PBM E-score": -0.0311}, {"sequence": "ATAGTCTG", "PBM E-score": -0.262}, {"sequence": "CGTATCTC", "PBM E-score": 0.296}, {"sequence": "GACTGGGA", "PBM E-score": -0.0484}, {"sequence": "ATAGCGAG", "PBM E-score": 0.15}, {"sequence": "GACAGGGC", "PBM E-score": -0.0413}, {"sequence": "CTCCCAAC", "PBM E-score": -0.141}, {"sequence": "ACTCAGCA", "PBM E-score": -0.00767}, {"sequence": "CTCGTCGC", "PBM E-score": -0.183}, {"sequence": "AGGTCAAA", "PBM E-score": -0.182}, {"sequence": "ACCTGTGC", "PBM E-score": -0.271}, {"sequence": "GGTTGCTA", "PBM E-score": -0.0748}, {"sequence": "CGAGTGAG", "PBM E-score": 0.0125}, {"sequence": "GTCTTCGA", "PBM E-score": -0.131}, {"sequence": "TCTCCAGA", "PBM E-score": -0.0567}, {"sequence": "AAGAGTGA", "PBM E-score": -0.275}, {"sequence": "GCGTCATA", "PBM E-score": -0.0808}, {"sequence": "AGAACACT", "PBM E-score": -0.0744}, {"sequence": "CTACCAAA", "PBM E-score": -0.0213}, {"sequence": "AGGCTTGG", "PBM E-score": -0.00216}, {"sequence": "AACCCGCA", "PBM E-score": 0.191}, {"sequence": "GAGTCGAC", "PBM E-score": -0.0613}, {"sequence": "ATAAATCG", "PBM E-score": 0.105}, {"sequence": "AGAAAGTC", "PBM E-score": 0.0177}, {"sequence": "ACATAGTC", "PBM E-score": -0.0221}, {"sequence": "ACTCTCAG", "PBM E-score": -0.292}, {"sequence": "ACCCTGCT", "PBM E-score": -0.129}, {"sequence": "CGTCGACA", "PBM E-score": -0.113}, {"sequence": "GACAAGCC", "PBM E-score": 0.0751}, {"sequence": "GGAATTAA", "PBM E-score": 0.419}, {"sequence": "CCGGAAAC", "PBM E-score": 0.426}, {"sequence": "GGTCAGAA", "PBM E-score": 0.102}, {"sequence": "CATACAAG", "PBM E-score": -0.102}, {"sequence": "CCATGAGC", "PBM E-score": -0.239}, {"sequence": "CTCCGAAC", "PBM E-score": 0.415}, {"sequence": "ATGTGTTG", "PBM E-score": -0.142}, {"sequence": "AGCCTGAC", "PBM E-score": -0.122}, {"sequence": "GCATGTAA", "PBM E-score": -0.177}, {"sequence": "ATCAGGCA", "PBM E-score": -0.194}, {"sequence": "ACCTCTCT", "PBM E-score": -0.293}, {"sequence": "GACCCACC", "PBM E-score": 0.141}, {"sequence": "AACGCTCC", "PBM E-score": -0.0565}, {"sequence": "GATACCCA", "PBM E-score": -0.112}, {"sequence": "CAATCTGG", "PBM E-score": -0.186}, {"sequence": "TAGATCAA", "PBM E-score": -0.149}, {"sequence": "CACATTAA", "PBM E-score": -0.231}, {"sequence": "AAAGTGAT", "PBM E-score": -0.0751}, {"sequence": "AAAGCGTA", "PBM E-score": 0.0231}, {"sequence": "GCACGATA", "PBM E-score": 0.0171}, {"sequence": "ACTAAAGC", "PBM E-score": 0.0709}, {"sequence": "ACTCATCC", "PBM E-score": -0.12}, {"sequence": "AAACAGCC", "PBM E-score": -0.0624}, {"sequence": "GCTACGAA", "PBM E-score": -0.16}, {"sequence": "ATGATTGG", "PBM E-score": -0.0096}, {"sequence": "ATTAAGCG", "PBM E-score": 0.00935}, {"sequence": "CCTGGGCA", "PBM E-score": -0.292}, {"sequence": "ACGTCTAT", "PBM E-score": -0.197}, {"sequence": "CGTCCGGA", "PBM E-score": 0.443}, {"sequence": "CACGTATA", "PBM E-score": -0.0707}, {"sequence": "AGCGTTCA", "PBM E-score": -0.1}, {"sequence": "GGCAAACC", "PBM E-score": 0.0569}, {"sequence": "TAACCTCA", "PBM E-score": -0.18}, {"sequence": "GCGGTGAA", "PBM E-score": 0.0893}, {"sequence": "AGCTATGA", "PBM E-score": -0.226}, {"sequence": "AAATCTGA", "PBM E-score": -0.167}, {"sequence": "CATCGGAC", "PBM E-score": 0.401}, {"sequence": "CATACCTC", "PBM E-score": -0.0827}, {"sequence": "GGACTCCA", "PBM E-score": 0.0548}, {"sequence": "AGAAAACG", "PBM E-score": -0.00956}, {"sequence": "CCCCATGA", "PBM E-score": -0.194}, {"sequence": "ACCATCCA", "PBM E-score": -0.144}, {"sequence": "CCATCAAG", "PBM E-score": -0.314}, {"sequence": "CGATATCA", "PBM E-score": 0.234}, {"sequence": "CACCGTCC", "PBM E-score": 0.143}, {"sequence": "AATCGCCG", "PBM E-score": 0.395}, {"sequence": "GCCGGTGA", "PBM E-score": 0.274}, {"sequence": "AGGCCGCA", "PBM E-score": -0.00433}, {"sequence": "ATTATATA", "PBM E-score": -0.0612}, {"sequence": "CCGACACA", "PBM E-score": 0.154}, {"sequence": "TCGCTAAA", "PBM E-score": -0.0067}, {"sequence": "CACTCACA", "PBM E-score": -0.00696}, {"sequence": "AGGTCCAT", "PBM E-score": 0.0933}, {"sequence": "ACTGTTCA", "PBM E-score": -0.0588}, {"sequence": "AGTAACGA", "PBM E-score": -0.105}, {"sequence": "GACACATA", "PBM E-score": -0.0738}, {"sequence": "AGGAACTC", "PBM E-score": -0.195}, {"sequence": "CGCTTGAG", "PBM E-score": -0.0317}, {"sequence": "AAGCGACA", "PBM E-score": 0.0662}, {"sequence": "AAGGTAGT", "PBM E-score": -0.0661}, {"sequence": "AACGCAGC", "PBM E-score": -0.0288}, {"sequence": "AGATAAAA", "PBM E-score": 0.00207}, {"sequence": "AATTTCGT", "PBM E-score": 0.00164}, {"sequence": "ACCTTTGA", "PBM E-score": -0.253}, {"sequence": "ATCCTCAA", "PBM E-score": -0.0487}, {"sequence": "GCAATCGA", "PBM E-score": -0.119}, {"sequence": "CGGGTAAC", "PBM E-score": 0.217}, {"sequence": "ACCAGCGA", "PBM E-score": -0.00815}, {"sequence": "ACGTCATG", "PBM E-score": -0.128}, {"sequence": "ATTACGCG", "PBM E-score": 0.154}, {"sequence": "CAGCCGCA", "PBM E-score": -0.142}, {"sequence": "GAATTCAC", "PBM E-score": -0.0015}, {"sequence": "GTATCCAA", "PBM E-score": -0.13}, {"sequence": "CACCGGAA", "PBM E-score": 0.398}, {"sequence": "CCATGTGA", "PBM E-score": -0.274}, {"sequence": "AAATTAGA", "PBM E-score": -0.0179}, {"sequence": "TCCAATCA", "PBM E-score": -0.0424}, {"sequence": "CTCGTTGA", "PBM E-score": -0.293}, {"sequence": "ATTGACAG", "PBM E-score": -0.00397}, {"sequence": "GAAAGTCC", "PBM E-score": 0.285}, {"sequence": "GGTACTAC", "PBM E-score": 0.142}, {"sequence": "CTTCGGGC", "PBM E-score": 0.208}, {"sequence": "AGTAGCCC", "PBM E-score": 0.0495}, {"sequence": "CGCAGTTC", "PBM E-score": 0.0273}, {"sequence": "CCACTAAG", "PBM E-score": 0.0818}, {"sequence": "AGTGGCAT", "PBM E-score": -0.0822}, {"sequence": "GCGAAGCA", "PBM E-score": 0.0421}, {"sequence": "AGATTTTA", "PBM E-score": -0.132}, {"sequence": "TATTGGGA", "PBM E-score": -0.249}, {"sequence": "GGAGGACC", "PBM E-score": 0.149}, {"sequence": "CACCGATG", "PBM E-score": 0.196}, {"sequence": "CCCGATTA", "PBM E-score": 0.197}, {"sequence": "AGGACTGC", "PBM E-score": -0.365}, {"sequence": "AGACTCAG", "PBM E-score": -0.176}, {"sequence": "CTGCACAG", "PBM E-score": -0.161}, {"sequence": "GGGAAGAC", "PBM E-score": -0.0862}, {"sequence": "TAGCTAAA", "PBM E-score": -0.2}, {"sequence": "AGGGATGG", "PBM E-score": 0.00107}, {"sequence": "AGTTTTGC", "PBM E-score": 0.00984}, {"sequence": "CGGACTAA", "PBM E-score": 0.411}, {"sequence": "CACACCAG", "PBM E-score": -0.292}, {"sequence": "AATCCCCA", "PBM E-score": -0.116}, {"sequence": "ACGACGCA", "PBM E-score": -0.00728}, {"sequence": "ACGGATCT", "PBM E-score": 0.268}, {"sequence": "GTATTCGA", "PBM E-score": -0.115}, {"sequence": "GTGGGCGA", "PBM E-score": -0.186}, {"sequence": "CCGGAGAC", "PBM E-score": 0.373}, {"sequence": "ACTAGTAT", "PBM E-score": -0.04}, {"sequence": "CAGAGGAC", "PBM E-score": -0.275}, {"sequence": "ATAGAACC", "PBM E-score": 0.0424}, {"sequence": "ACAGACCA", "PBM E-score": -0.117}, {"sequence": "GCGTTGTA", "PBM E-score": -0.0982}, {"sequence": "CCATGAAA", "PBM E-score": -0.184}, {"sequence": "CTAGCCAC", "PBM E-score": -0.304}, {"sequence": "AGCTACGC", "PBM E-score": -0.0755}, {"sequence": "TAAAGAAA", "PBM E-score": 0.0601}, {"sequence": "ACGTTAGG", "PBM E-score": -0.082}, {"sequence": "ACGAACGC", "PBM E-score": 0.0808}, {"sequence": "CGCGGATA", "PBM E-score": 0.309}, {"sequence": "GGTAGTCA", "PBM E-score": -0.0479}, {"sequence": "ATCACCAG", "PBM E-score": -0.00114}]}]}
